# Test results published in PubChem BioAssay AID1508623 (National Center for Advancing Translational Sciences (NCATS), 2021).
# Out of some 48,000 compounds screened, about 450 (0.94%) were called active. Not shown: some 19% with an inconclusive outcome. Calls follow the shape of the dose curve; as a rule, active = well fitted inhibition curve with a large enough effect; inconclusive = small, poorly fitted or top-dose-only effect; inactive = no such curve, though single readings can be large or run the other way. The list shows a part of the results.
# Assay: Primary qHTS for Identification of Small Molecule Inhibitors of Huntingtin Promoter Activity; also: nearly all actives have a fitted effect of over 50% in size
# Settings: HEK293 HTT promoter firefly luciferase reporter (activity 0% = vehicle and -100% = no light), 24 h; series mostly up to 57.5 µM; activity change, negative = inhibition: at the top concentration
# Outline: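 Quantitative HTS used concentration series of up to 57.5 uM final on HEK293 luciferase reporter cells, 24 h at 37 degrees C. Readout was Dual-Glo firefly luminescence.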
# Potency is read from the fitted curve at half-maximal effect.
SMILES,"activity change, negative = inhibition",Potency
Cc1csc2nc(CCNS(=O)(=O)c3ccc(F)cc3)cn12,inactive: -3.55%,
O=C(CCOc1ccccc1)N(Cc1cccnc1)c1nc2ccc(F)cc2s1,inactive: 18.7%,
CCOC(=O)c1c(NC(=O)c2ccc(OC)c(OC)c2)sc2c1CCCCC2,inactive: -0.947%,
O=C(Nc1ccc2oc(-c3ccc(Cl)cc3)nc2c1)c1ccc2ccccc2c1,inactive: -7.88% [at 11.5 µM],
CCN(C(=O)c1cc2c(=O)oc3ccc(C)cc3c2s1)c1ccccc1F,inactive: -0.911%,
CCOc1ccccc1NC(c1nnc(-c2ccccc2)o1)c1ccc(F)cc1Cl (configuration not stated),inactive: -26.6%,
CCN(CC)CCCN(c1ccccc1)C1Cc2ccccc2C1,inactive: -16.3%,
CCOc1ccc(-c2oc3cc(Cl)ccc3c(=O)c2O)cc1OC,inactive: 7.75%,
COc1ccc(C2CC(=O)N(Cc3ccccc3)c3c2c(C)nn3-c2nc(C)cc(C)n2)c(OC)c1 (configuration not stated),inactive: -14%,
CCC(=O)N1CCc2cc(Br)cc(S(=O)(=O)CCC(=O)NCCc3ccccc3)c21,inactive: -2.41%,
CCc1ccccc1NC(=O)Cn1cc2c(n1)CCC(C)C2 (configuration not stated),inactive: -15.7%,
CCc1ccc(NS(=O)(=O)c2ccc3[nH]cc(C(=O)N(C)Cc4ccco4)c(=O)c3c2)cc1,inactive: 4.03%,
CC(C)CN(CCNC(=O)c1cn(C)c2ccc(S(=O)(=O)N3CCCC3)cc2c1=O)CC(C)C,inactive: -8.09%,
CCCN(C(=O)CCNC(=O)Cn1cnc2ccccc2c1=O)c1cccc(C)c1,inactive: -3.46%,
CCOC(=O)c1ccc2[nH]c(CSc3nnc(-c4cccc(F)c4)n3C)cc(=O)c2c1,inactive: 1.65%,
Cc1ccc(-n2nc(C(=O)N3CCN(c4cccc(C(F)(F)F)c4)CC3)c3c4ccccc4n(C)c3c2=O)cc1,inactive: -13.7%,
Cc1ccc(C)c(-c2[nH]c3c(c2-c2c(-n4cccc4)n(C)c(=O)n(C)c2=O)c(=O)n(C)c(=O)n3C)c1,inactive: -13%,
CCOc1cc(C2c3c(oc4ccccc4c3=O)C(=O)N2c2ccccn2)ccc1O (configuration not stated),inactive: -13.1%,
CCOC(=O)c1c(NC(=O)c2cc(Cl)ccc2Cl)sc2c1CCCC2,inactive: -10.3%,
COc1ccc(OC)c(NC(=O)c2cc(=O)c3c(C)cc(C)cc3o2)c1,inactive: -11.5% [at 11.5 µM],
Cc1ccc(CNc2cc(C)nc3nc(-c4cccc(C)c4)nn23)cc1,inactive: -22.5%,
Cc1cn2c(=O)c(S(=O)(=O)NCc3ccccc3Cl)c(C)nc2s1,inactive: -0.467%,
Cc1cc(C)n(CCc2nc3c4ccccc4nc(N4CCN(c5ccc(F)cc5)CC4)n3n2)n1,inactive: -6.01%,
CCN(C(=O)CSc1nc2ccccc2n1CC(=O)Nc1ccc(F)cc1F)c1ccccc1,inactive: -34.3%,

SMILES,"activity change, negative = inhibition",Potency
COc1ccc(-c2ccc(CCC(=O)O)n2-c2ccc(Cl)cc2C)cc1,inactive: -16.1%,
CCOC(=O)c1cccc(NC(=O)CCc2c(C)nn(-c3ccc(N4CCOCC4)nn3)c2C)c1,inactive: -1.55%,
CCc1ccc(-n2nc(CO)c(C(=O)NCc3ccccc3OC)n2)cc1,inactive: 4.83%,
COCCCn1c(=O)c2sccc2n2c(CCCC(=O)NCc3ccc(F)cc3)nnc12,inactive: -14.6%,
Cc1ccc2[nH]c3c(=O)n(CC(=O)NCCc4ccc(Cl)cc4)ncc3c2c1,inactive: 7.23%,
COc1ccc(NC(=O)C2CCN(c3cnccn3)CC2)cc1Cl,inactive: -20.5%,
CCn1cc(S(=O)(=O)c2cccc(C)c2)c(=O)c2cc(F)c(N3CCN(c4ccccc4)CC3)cc21,inactive: -26.6%,
CCCCSc1nnc2c(n1)OC(C)N(C(C)=O)c1ccccc1-2 (configuration not stated),inactive: -3.77% [at 11.5 µM],
CCc1ccccc1NC(=O)CC1Sc2ccc(C(F)(F)F)cc2NC1=O (configuration not stated),inactive: -8.2%,
COc1ccc(CCNC(=O)C2COc3ccccc3C2)cc1OC (configuration not stated),inactive: -16.6%,
COc1ccc(CCNC(=O)Cc2c(C)c3cc4c(C)coc4c(C)c3oc2=O)cc1,inactive: -8.63%,
Cn1c(Oc2ccc(Cl)cc2)nc2c1c(=O)n(Cc1ccc(F)cc1)c(=O)n2C,inactive: -4.49%,
CC(=O)C1=C(O)C=C2Oc3c(C(C)=O)c(O)c(C)c(O)c3C2(C)C1=O (configuration not stated),inactive: 0.475%,
O=C(NCCc1ccccc1)c1ccc2c(c1)N(Cc1ccc(F)cc1)C(=O)c1ccccc1S2,inactive: 11.6%,
COc1ccc(C(=O)NC(c2ccc(Cl)cc2)c2cc(Cl)c3cccnc3c2O)cc1 (configuration not stated),,active: 17.8 µM
CCCCN(CC)C(=O)c1cc2c(=O)n3cccc(C)c3nc2s1,inactive: 16.4%,
COc1cc(Cl)c(C)cc1NC(=O)c1cnc(N2CCOCC2)c2ccccc12,inactive: -2.18%,
Cc1cccn2c(=O)c3cc(C(=O)Nc4ccc(Cl)c(Cl)c4)sc3nc12,inactive: 2.94%,
Cc1ccc(Nc2ccc(N3CCN(C(=O)c4ccc([N+](=O)[O-])cc4)CC3)nn2)cc1,inactive: -7.3%,
Cn1c(SCc2ccc(Br)cc2)nc2c([nH]c3ccccc32)c1=O,inactive: -14.3%,
O=C(c1ccc(Nc2nc3ccccc3n3nnnc23)cc1)N1CCN(c2cccc(C(F)(F)F)c2)CC1,inactive: -8.44%,
CCOC(=O)c1cccc(NS(=O)(=O)c2cc3c(cc2C)NC(=O)CO3)c1,inactive: -19.6%,
Cc1ccc(NC(=O)CN2C(=O)CC(C)Sc3ccccc32)c(C)c1 (configuration not stated),inactive: -14%,
